Source: PubChem BioAssay AID1347165 (National Center for Advancing Translational Sciences (NCATS), 2019)
Hit rate of the full screen: of about 220,000 compounds, about 5,700 (2.6%) were called active. The shares of active, inactive and inconclusive entries below differ from those in the screen. Calls come from the whole dose curve; as a rule, active = well fitted inhibition curve with a large enough effect; inconclusive = small, poorly fitted or top-dose-only effect; inactive = no such curve, though single readings can be large or run the other way. Potencies of inconclusive entries are doubtful fits and often do not repeat.

Each molecule was assayed against Lysine-specific demethylase 5B (Homo sapiens) (UniProt Q9UGL1) (assay: Primary screen for KDM5B Histone Demethylases FDH-coupled qHTS). Settings: FDH-coupled NADH fluorescence (FDH is formaldehyde dehydrogenase); activity change, negative = inhibition: at 57.7 µM (top of the series) unless noted.
Summary of the method: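 Coupled FDH/NAD⁺ fluorescence readout. KDM5BΔAP 200 nM final; compound titration, 10 min RT preincubation; substrate mix 12.5 µM H3K4me3, 25 µM 2-OG, 50 µM Fe(II), 100 µM ascorbate, 0.25 mM NAD⁺, 0.25 U/mL FDH; ΔRFU over 30 min.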
Note: nearly all actives have a fitted effect of over 70% in size.
Potency is the fitted concentration of half-maximal effect; tags give direction and shape of the fitted curve.
Throughout, for activity change, negative = inhibition: 0% is about no effect.

Sequence of UniProt Q9UGL1 (Q9UGL1 whole entry, looked up): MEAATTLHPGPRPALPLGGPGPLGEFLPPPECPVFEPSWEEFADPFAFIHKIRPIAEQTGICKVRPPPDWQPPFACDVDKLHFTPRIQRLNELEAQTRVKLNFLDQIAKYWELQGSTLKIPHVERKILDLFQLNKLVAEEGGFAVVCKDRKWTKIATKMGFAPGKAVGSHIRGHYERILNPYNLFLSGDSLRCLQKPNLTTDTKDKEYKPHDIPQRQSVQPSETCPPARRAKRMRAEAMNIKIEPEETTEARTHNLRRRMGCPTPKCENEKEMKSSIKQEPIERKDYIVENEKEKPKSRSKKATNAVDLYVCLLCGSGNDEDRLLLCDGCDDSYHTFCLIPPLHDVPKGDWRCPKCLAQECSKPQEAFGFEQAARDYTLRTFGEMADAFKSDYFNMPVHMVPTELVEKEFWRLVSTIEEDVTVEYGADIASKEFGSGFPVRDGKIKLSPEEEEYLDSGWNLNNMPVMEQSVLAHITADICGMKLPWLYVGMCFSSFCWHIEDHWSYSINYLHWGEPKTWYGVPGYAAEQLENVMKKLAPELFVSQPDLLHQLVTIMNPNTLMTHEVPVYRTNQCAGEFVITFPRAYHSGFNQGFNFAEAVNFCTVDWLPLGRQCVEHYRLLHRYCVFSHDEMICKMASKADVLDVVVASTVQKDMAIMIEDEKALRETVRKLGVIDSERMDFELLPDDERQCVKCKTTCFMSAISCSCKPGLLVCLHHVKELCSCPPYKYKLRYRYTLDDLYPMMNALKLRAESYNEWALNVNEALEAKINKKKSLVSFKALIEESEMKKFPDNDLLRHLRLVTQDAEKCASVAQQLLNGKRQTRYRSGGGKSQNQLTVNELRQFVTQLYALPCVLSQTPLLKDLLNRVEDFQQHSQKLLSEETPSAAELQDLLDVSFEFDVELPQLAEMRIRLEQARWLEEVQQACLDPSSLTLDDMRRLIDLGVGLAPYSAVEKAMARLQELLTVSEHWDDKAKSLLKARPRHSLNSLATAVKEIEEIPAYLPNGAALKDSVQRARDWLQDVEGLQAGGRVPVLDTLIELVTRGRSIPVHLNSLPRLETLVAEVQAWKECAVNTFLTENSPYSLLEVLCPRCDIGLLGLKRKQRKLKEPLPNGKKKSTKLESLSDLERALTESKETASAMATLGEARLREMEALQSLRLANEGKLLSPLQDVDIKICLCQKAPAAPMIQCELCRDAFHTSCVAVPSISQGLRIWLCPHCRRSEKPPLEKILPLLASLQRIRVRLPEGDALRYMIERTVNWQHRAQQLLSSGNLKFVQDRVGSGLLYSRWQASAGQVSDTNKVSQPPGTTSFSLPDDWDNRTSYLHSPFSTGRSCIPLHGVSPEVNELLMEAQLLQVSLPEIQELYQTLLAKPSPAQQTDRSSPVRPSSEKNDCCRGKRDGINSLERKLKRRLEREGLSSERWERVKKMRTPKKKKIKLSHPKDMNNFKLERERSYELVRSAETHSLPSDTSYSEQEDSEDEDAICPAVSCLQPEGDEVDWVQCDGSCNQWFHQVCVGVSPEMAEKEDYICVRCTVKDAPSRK

Compound	Potency	activity change, negative = inhibition
Cc1ccsc1C(=O)N1CCC2(CC1)N=C(c1ccc(Cl)cc1)NO2	inconclusive: 22.4 µM [inhibitor, single point]	–
O=C(c1cccnc1OC1CCN(Cc2ccccn2)C1)N1CCOCC1 (stereo not given)	inconclusive: 12.6 µM [inhibitor, partial curve]	–
COc1ccc(C2NC(=O)N(C)C3=C2C(=O)N(c2cccc(C(=O)O)c2)C3)cc1 (stereo not given)	inconclusive: 14.1 µM [inhibitor, partial curve, poor fit]	–
Cc1ccc(NC(=O)C2CCN(S(=O)(=O)c3c(C)noc3/C=C/c3cccs3)CC2)cc1F	inactive	–
N#C/C(=C\c1ccc([N+](=O)[O-])cc1)C(=O)NCCCn1ccnc1	inconclusive: 22.4 µM [inhibitor, partial curve, poor fit]	–
CCn1ncc2c(C(=O)Nc3ccc(OC(F)F)cc3)cc(-c3cccs3)nc21	inconclusive: 35.5 µM [inhibitor, partial curve, poor fit]	–
CCCS(=O)(=O)c1c(S(=O)(=O)CCC)c2cc(CC)ccn2c1C(=O)c1ccc(Cl)cc1	inconclusive: 35.5 µM [inhibitor, partial curve, poor fit]	–
S=C(NCc1ccccc1)N/N=C/c1c2ccccc2c(Cl)c2ccccc12	inactive	–
CCSc1nc2n(n1)C(c1cccs1)C1=C(CCCC1=O)N2 (stereo not given)	inconclusive: 20 µM [inhibitor, single point]	–
COc1ccccc1CCC(=O)N1CCN(c2cc(-c3cccs3)[nH]n2)CC1	inconclusive: 20 µM [inhibitor, partial curve, poor fit]	–
Cn1nc(C(=O)NCc2nnc3ccc(-c4ccccc4)nn23)c2ccccc21	inconclusive: 8.91 µM [inhibitor, partial curve]	–
COc1cc(OC(F)(F)F)ccc1C(=O)N1CCC(c2nnc3n2C(C(=O)O)CC3)CC1 (stereo not given)	inconclusive: 56.2 µM [inhibitor, partial curve, poor fit]	–
Cc1ccc(-n2nc(C)c3c(C(=O)NCCc4ccccc4)cc(C)nc32)cc1	inconclusive: 31.6 µM [inhibitor, partial curve, poor fit]	–
COC(=O)c1ccc(C(=O)OC)c(NC(=O)CSc2ccc3c(c2)OCCO3)c1	inactive	–
COCC1CN(C)CC12CCN(C1CCOCC1)CC2 (stereo not given)	inconclusive: 14.1 µM [inhibitor, partial curve, poor fit]	–
CCc1ccc(NC(=O)CCNS(=O)(=O)c2ccc3c(c2)oc(=O)n3C)cc1	inconclusive: 17.8 µM [inhibitor, single point]	–
CCc1nc2c(c(-c3ccc(OC)cc3)n1)CCN(Cc1ccc(OC)cc1)CC2	inactive	–
CCOC(=O)c1ccccc1NC(=O)CN1CCCN(Cc2cccc(Cl)c2)S1(=O)=O	inconclusive: 25.1 µM [inhibitor, partial curve, poor fit]	–
COc1ccc(Cl)cc1N(C)C(=O)c1cc2c(=O)oc3ccc(C)cc3c2s1	inconclusive: 39.8 µM [inhibitor, single point]	–
COCCNC(=O)c1nc(-c2ccccc2OC)c2ccccn12	inactive	–

Compound	Potency	activity change, negative = inhibition
O=C(/C=C/c1ccccc1)NC(O)C(=O)c1ccccc1 (stereo not given)	inactive	–
CCCCCC/C(=N\NC(N)=O)c1ccccc1	inactive	–
Nc1c(C(=O)Nc2ccccc2F)sc2nc3c(cc12)CCCCCC3	inconclusive: 12.6 µM [inhibitor, partial curve, poor fit]	–
O=C(c1cc(-c2cccs2)[nH]n1)N1CCc2nc3cc[nH]n3c(=O)c2C1	inconclusive: 28.2 µM [inhibitor, partial curve, poor fit]	–
CC1CN(Cc2ccccc2)c2nc3c(c(=O)[nH]c(=O)n3C)n2C1 (stereo not given)	inconclusive: 22.4 µM [inhibitor, partial curve, poor fit]	–
CCOC(=O)C1=C(C)N=C2SC=C(CC(=O)NCc3ccco3)N2C1c1ccccc1Cl (stereo not given)	inconclusive: 25.1 µM [inhibitor, single point]	–
CC(=O)CC(=O)Nc1ccccc1C#N	inactive	–
CCC(C(=O)NCc1ccc(OC)c(OC)c1)n1nc(C)c2c(C)n(-c3ccc(C)cc3)nc2c1=O (stereo not given)	inconclusive: 25.1 µM [inhibitor, single point]	–
Cc1ccc(NC(=O)CSc2n[nH]c(=O)c3cc(-c4ccco4)nn23)c(Br)c1	inconclusive: 31.6 µM [inhibitor, partial curve, poor fit]	–
CC1(C(=O)NCC2CC2)CCc2cnc(NCc3ccccc3)nc21 (stereo not given)	active: 39.8 µM	–
CCOc1ccccc1NC(=O)CCNS(=O)(=O)c1cccc2nonc12	–	inconclusive: -30.5% [inhibitor]
CC1(C)CC(CN2CCC3(CC2)CC(=O)N(Cc2ccccc2)C3)CCO1 (stereo not given)	inactive	–
Cc1ccc(C)c(NC(=O)Cn2cc(C(=O)c3cccs3)c3ccccc32)c1	inconclusive: 35.5 µM [inhibitor, single point]	–
COc1cc(C(=O)Nc2ccc3c(c2)N(C2CCCC2)C(=O)c2ccccc2S3)cc(OC)c1OC	inconclusive: 8.91 µM [inhibitor, partial curve, poor fit]	–
N#Cc1cccc(NC(=O)N2Cc3[nH]cnc3C[C@H]2c2nc(-c3ccc(Cl)cc3)no2)c1	inconclusive: 31.6 µM [inhibitor, partial curve, poor fit]	–
O=C(c1ccccc1)N1CCn2c(nn(-c3ccc(C(F)(F)F)cc3)c2=O)C1	inconclusive: 89.1 µM [inhibitor, single point]	–
O=C(O)c1cc(N2CCOCC2)ccn1	inactive	–
NC(=S)N/N=C1\CCCCC1c1nccc2ccccc12 (stereo not given)	inconclusive: 31.6 µM [inhibitor, single point]	–
C/C=C/Oc1ccc(C(=O)/C(=C\c2cccnc2)c2nc3ccccc3o2)cc1	inconclusive: 25.1 µM [inhibitor, partial curve, poor fit]	–
C=CCN1[C@@H](CC(C)C)COc2cccc(N3CCCC3)c2S1(=O)=O	inconclusive: 31.6 µM [inhibitor, partial curve, poor fit]	–
